Assay results as given in patent publication US20220315655A1.
Blank lines part the entries; values can stand above or below the binder they belong to.

Target: recombinant human CD47 soluble protein (human) (UniProt Q08722)
Assay: sandwich ELISA, antibody captured on anti-human Fc, biotinylated rec. human CD47 titrated (x axis), fluorescence

Sequence of UniProt Q08722 (Q08722 19-139 limits assumed): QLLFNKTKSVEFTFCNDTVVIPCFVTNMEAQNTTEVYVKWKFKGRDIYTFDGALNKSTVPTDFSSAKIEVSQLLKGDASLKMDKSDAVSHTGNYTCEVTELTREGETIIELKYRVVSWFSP

EC50 (read off the curve): 0.07 nM
B1: K38 bsAb (CD47xPD-L1 bispecific antibody with the K38 CD47 arm) (bispecific antibody, part only; not given: PD-L1 lambda arm, part only)
heavy: [sequence of about 120 residues omitted]ASTKGPSVFPLAPCSRSTSESTAALGCLVKDYFPEPVTVSWNSGALTSGVHTFPAVLQSSGLYSLSSVVTVPSSSLGTKTYTCNVDHKPSNTKVDKRV[sequence of human IgG4 Fc with S228P (EU numbers) omitted]
light: DIQMTQSPSSLSASVGDRVTITCRASQVIANWLNWYQQKPGKAPKLLIYAGSHLQSGVPSRFSGSGSGTDFTLTISSLQPEDFATYYCQQMHPRAPKTFGQGTKVEIKRTVAAPSVFIFPPSDEQLKSGTASVVCLLNNFYPREAKVQWKVDNALQSGNSQESVTEQDSKDSTYSLSSTLTLSKADYEKHKVYACEVTHQGLSSPVTKSFNRGEC

EC50 (read off the curve): 0.1 nM
B2: K33 bsAb (CD47xPD-L1 bispecific antibody with the K33 CD47 arm) (bispecific antibody, part only; not given: PD-L1 lambda arm, part only)
heavy: [sequence of about 120 residues omitted]ASTKGPSVFPLAPCSRSTSESTAALGCLVKDYFPEPVTVSWNSGALTSGVHTFPAVLQSSGLYSLSSVVTVPSSSLGTKTYTCNVDHKPSNTKVDKRV[sequence of human IgG4 Fc with S228P (EU numbers) omitted]
light: DIQMTQSPSSLSASVGDRVTITCRASQSISSYLNWYQQKPGKAPKLLIYAASSLQSGVPSRFSGSGSGTDFTLTISSLQPEDFATYYCQQFHKRSPQKFGQGTKVEIKRTVAAPSVFIFPPSDEQLKSGTASVVCLLNNFYPREAKVQWKVDNALQSGNSQESVTEQDSKDSTYSLSSTLTLSKADYEKHKVYACEVTHQGLSSPVTKSFNRGEC
